# Test results reported in the RNAGym collection of RNA variant scans (doi:10.1073/pnas.2313332121).
# This sample is rich in variants without activity.
# B1: TPR 5TU (parent)
# chain: GGAUCUUCUCGAUCUAACAAAAAAGACAAAUCUGCCACAAAGCUUGAGAGCAUCUUCGGAUGCAGAGGCGGCAGCCUUCGGUGGCGCGAUAGCGCCAACGUUCUCAACUAUGACACGCAAAACGCGUGCUCCGUUGAAUGGAGUUUAUCAUG
# Variants of: B1
# Assay: polymerase ribozyme fitness, log enrichment relative to wild type (log ratio); higher = more active; in vitro selection for triplet polymerase activity
# In short: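 Mutant libraries for each subunit of a heterodimeric triplet polymerase ribozyme were made by PCR and then transcribed. Each library underwent one round of in vitro selection in triplicate: annealing with a biotinylated primer, the partner subunit and triplets, frozen incubation at −7 °C, gel excision of extended constructs, streptavidin-bead capture and RT-PCR. Input and output libraries were Illumina-sequenced, and only genotypes with ≥10 input reads and ≥1 read per output were kept. Fitness is the logarithm, base 2, of genotype enrichment over wild-type enrichment, computed from inverse-variance-weighted replicate averages.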
row,Variant,polymerase ribozyme fitness (log ratio)
1,GGAUCUUCUCGAUCUAACAAAAAAGACAAAUCUGCCACAAAGCUUGAGAGCAUCUUCGGAUGCAGAGGAGGCCGCCUUCGGUGGCGCGAUAGCGCCAACGUUCUCAACUAUGACACGCAAAACGCGUGCUCCGUUGAAUGGAGAUUAUCAUG [C69A A73C U144A],≤ -4.2
2,GGAUCUUCUCGAUCUAACAAAAAAGACAAAUCUGCCACAAAGCUUGAGAGCAUCUUCGGAUGCAGAGGAGGCAGCCUUCGGUGGCGCGAUGGCGCCAUCAUUCUCAACUAUGACACGCAAAACGCGUGCUCCGCUGAAUGGAGUUUAUCAUG [C69A A91G A98U G100A U134C],≤ -4.2
3,GGAUCUUCUCGAUCUAACAAAAAAGACAAAUCUGCCACAAAGCUUGAGAGCAUCUUCGGAUGCAGAGGAGGCAGCCUUCGGUGGCGCGAUAGCGCCAACGUUCUCAACUAUGACACGCUAAACGCGUGCUCCGUUGAAUGGAGUUUAUCAUG [C69A A119U],-2.7
4,GGAUCUUCUCGAUCUAACAAAAAAGACAAAUCUGCCACAAAGCUUGAGAGCAUCUUCGGAUGCAGAGGAGGCAGUCUUCGGUGGCGCGAUAGCGCCAACGUUCUCGACUAUGACACGCAGAACGCGUGCUCCGUUGAAUGGAGUUUAUCAUG [C69A C75U A106G A120G],-2.33
5,GGAUCUUCUCGAUCUAACAAAAAAGACAAAUCUGCCACAAAGCUUGAGAGCAUCUUCGGAUGCAGAGGAGGCAGCAUUCGGUUGCGCUAUAGCGCCAACGUUCUCAACUAUGACACGCAAAACGCGUGCUCCGUUGAAUGGAGUUUAUCAUG [C69A C76A G83U G88U],≤ -4.2
6,GGAUCUUCUCGAUCUAACAAAAAAGACAAAUCUGCCACAAAGCUUGAGAGCAUCUUCGGAUGCAGAGGAGGCAGCGUUCGGUAGCGCGAUAGCGCCAACGUUCUCAACUAUGACACGCAAAACGCGUGCUCCGUUGAAUGGAGUUUAUCAUG [C69A C76G G83A],≤ -4.2
7,GGAUCUUCUCGAUCUAACAAAAAAGACAAAUCUGCCACAAAGCUUGAGAGCAUCUUCGGAUGCAGAGGAGGCAGCGUUCGGUGGCGCGACAGCGCCAACGUUCUCAACUAUGACACGCAAAACGCGUGCUCCGUUGAAUGGAGUUUAUCAUG [C69A C76G U90C],≤ -4.2
8,GGAUCUUCUCGAUCUAACAAAAAAGACAAAUCUGCCACAAAGCUUGAGAGCAUCUUCGGAUGCAGAGGAGGCAGCCUUAGGUGGCGCGAUAGCGCCAACGUUCUCAACUAUGACUCGAAAAACGCGUGCUCCGUUGAAUGGAGUUUAUCAUG [C69A C79A A115U C118A],≤ -4.2
9,GGAUCUUCUCGAUCUAACAAAAAAGACAAAUCUGCCACAAAGCUUGAGAGCAUCUUCGGAUGCAGAGGAGGCAGCCUUCGGUGGAGCGAUAGCGCCAACGUUCUCAACUAUUACACGCAAAACGCGUGCUCCGUUGAAUGGAGUUUAUCAUG [C69A C85A G112U],≤ -4.2
10,GGAUCUUCUCGAUCUAACAAAAAAGACAAAUCUGCCACAAAGCUUGAGAGCAUCUUCGGAUGCAGAGGAGGCAGCCUUCGGUGGUGCGAUAGCGCCAACGUUCUCGACUAUGACACGCAACACUCGUGCUCCGUUGAAUCGAGUUUAUCAUG [C69A C85U A106G A121C G124U G140C],≤ -4.2
11,GGAUCUUCUCGAUCUAACAAAAAAGACAAAUCUGCCACAAAGCUUGAGAGCAUCUUCGGAUGCAGAGGAGGCAGCCUUCGGUGGUGCGAUAGUGCCAACGUUCUCAACUAUGACACGCAAAACGCGUGCUCCGUUGAAUGGAGUUUAUCAUG [C69A C85U C93U],≤ -4.2
12,GGAUCUUCUCGAUCUAACAAAAAAGACAAAUCUGCCACAAAGCUUGAGAGCAUCUUCGGAUGCAGAGGAGGCAGCCUUCGGUGGCGAGAUAGCGCCAACGUUCUCAACUAUGAGACGCAAAACGCGUGCUCCGUUGAAUGGAGUGUAUCAUG [C69A C87A C114G U145G],≤ -4.2
13,GGAUCUUCUCGAUCUAACAAAAAAGACAAAUCUGCCACAAAGCUUGAGAGCAUCUUCGGAUGCAGAGGAGGCAGCCUUCGGUGGCGAGAUAGCGCCAACGUUCUCAACUAUGACACACAAAACGCGUGCUCCGUUGAAUGGAGUUUAUCAUG [C69A C87A G117A],≤ -4.2
14,GGAUCUUCUCGAUCUAACAAAAAAGACAAAUCUGCCACAAAGCUUGAGAGCAUCUUCGGAUGCAGAGGAGGCAGCCUUCGGUGGCGCGAUAGGGCCAACGUUAUCAACUAUGACACGCAAAACGCGUGCACCGUUGAAUGGAGUUUAUCAUG [C69A C93G C103A U130A],≤ -4.2
15,GGAUCUUCUCGAUCUAACAAAAAAGACAAAUCUGCCACAAAGCUUGAGAGCAUCUUCGGAUGCAGAGGAGGCAGCCUUCGGUGGCGCGAUAGUGCCAACGUUGACAACUAUGACACGCAAAACGCGUGCUCCGUUGAAUGGAGUUUAGCAUG [C69A C93U C103G U104A U148G],≤ -4.2
16,GGAUCUUCUCGAUCUAACAAAAAAGACAAAUCUGCCACAAAGCUUGAGAGCAUCUUCGGAUGCAGAGGAGGCAGCCUUCGGUGGCGCGAUAGCGCAAAGGUUCUCAACUAUGACACGCAAAACGCGUGCUCCGUUGAAUGGAGUUUAUCAUG [C69A C96A C99G],≤ -4.2
17,GGAUCUUCUCGAUCUAACAAAAAAGACAAAUCUGCCACAAAGCUUGAGAGCAUCUUCGGAUGCAGAGGAAGCAGCCUUCGGUGGCGCGAUACCGCCAACGUUCUCAACUAUGACACGCAAAACGCGUGCUCCGUUGAAUGGAGUUUAUCAUA [C69A G70A G92C G152A],≤ -4.2
18,GGAUCUUCUCGAUCUAACAAAAAAGACAAAUCUGCCACAAAGCUUGAGAGCAUCUUCGGAUGCAGAGGACGCAGCCUUCGGUGGCGCGAUAGCGCCAACGUUCUCGACUAUGACACGCAAAACGCGUGCUUCGUUGCAUGGAGUUUAUCAUG [C69A G70C A106G C131U A137C],≤ -4.2
19,GGAUCUUCUCGAUCUAACAAAAAAGACAAAUCUGCCACAAAGCUUGAGAGCAUCUUCGGAUGCAGAGGAGGCAGCCUUCGUUGUCGCGAUAGCGCCAACGUUCUCAACUAUGACACGCAAAACGCGUGCUCCGUUGAAUGGAGUUUAUCAUG [C69A G81U G84U],≤ -4.2

row,Variant,polymerase ribozyme fitness (log ratio)
1,GGAUCUUCUCGAUCUAACAAAAAAGACAAAUCUGCCACAAAGCUUGAGAGCAUCUUCGGAUGCAGAGGAGGCAGCCUUCGGUGACGCGAUAGCGCCAACGUUCUCAACUAUGACACGCAAAACGCGUGCUCCGUUGAAUGGAGUUUAUCAUG [C69A G84A],-2.31
2,GGAUCUUCUCGAUCUAACAAAAAAGACAAAUCUGCCACAAAGCUUGAGAGCAUCUUCGGAUGCAGAGGAGGCAGCCUUCGGUGGCGCGAUAUCGCCAACGUUCUCAACUAUGACACGCAAAACGCGUGCUCCGUUGAAUGGAGUUUAUCAUG [C69A G92U],-1.15
3,GGAUCUUCUCGAUCUAACAAAAAAGACAAAUCUGCCACAAAGCUUGAGAGCAUCUUCGGAUGCAGAGGAGGCAGCCUUCGGUGGCGCGAUAGCGCCAACGGUCUGAACUAUGACACGCAAAACGCGUGCUCCGUUGAACGGAGUUUAUCAUG [C69A U101G C105G U139C],≤ -4.2
4,GGAUCUUCUCGAUCUAACAAAAAAGACAAAUCUGCCACAAAGCUUGAGAGCAUCUUCGGAUGCAGAGGAGGCAGCCUUCGGUGGCGCGAUAGCGCCAACGGUCUCAACUAUGACACGCAAAACGCAUGCUCCGUUGAAUGGAGUUUAUCAUG [C69A U101G G126A],-0.681
5,GGAUCUUCUCGAUCUAACAAAAAAGACAAAUCUGCCACAAAGCUUGAGAGCAUCUUCGGAUGCAGAGGAGGCAGCCUUCGGUGGCGCGAUAGCGCCAACGUGCUCAACUAUGACACGCAAAACGCGUGCUCCGUUGAAUGGAGUUUAUCAUG [C69A U102G],≤ -4.2
6,GGAUCUUCUCGAUCUAACAAAAAAGACAAAUCUGCCACAAAGCUUGAGAGCAUCUUCGGAUGCAGAGGGGGCGGUCUUCGGUGGCGCGUUAGCUCCAACGUUCUCAACUAUGACACGCAAAACGCGUGCUCCGUUGAGUAGCGUUUAUCAUG [C69G A73G C75U A89U G94U A138G G140A A142C],≤ -4.2
7,GGAUCUUCUCGAUCUAACAAAAAAGACAAAUCUGCCACAAAGCUUGAGAGCAUCUUCGGAUGCAGAGGGGGCUGCCUUCGGUGGCGCGAUAGCGCCAUCGUUCUCAACUAUGACGCGCAAAACGCGUGCUCCGAUGAAUGGAGUUGAUCAUG [C69G A73U A98U A115G U134A U146G],≤ -4.2
8,GGAUCUUCUCGAUCUAACAAAAAAGACAAAUCUGCCACAAAGCUUGAGAGCAUCUUCGGAUGCAGAGGGGGCAGCCUUCGGUGGCGCGUUAGCGCCAACGUUCUCAACUAUGACACGCAAAACGCGUGCUCCGUUGAAUGGAGUUUAUCAUG [C69G A89U],-1.45
9,GGAUCUUCUCGAUCUAACAAAAAAGACAAAUCUGCCACAAAGCUUGAGAGCAUCUUCGGAUGCAGAGGGGGCAGCCUUCGGUGGCGCGAUUGCGCCAAUGUUCUCAACUAUGACACGCAAAACGUGUGCUCCAAUGAAUGGAGUUUAUCAUG [C69G A91U C99U C125U G133A U134A],≤ -4.2
10,GGAUCUUCUCGAUCUAACAAAAAAGACAAAUCUGCCACAAAGCUUGAGAGCAUCUUCGGAUGCAGAGGGGGCAGCCUUCGGUGGCGCGAUUGCGCCAACGUCCUCAACUAUGACACGCAAAACGCGUGCUCCGUUGAAUGGAGUUUAUCAUG [C69G A91U U102C],≤ -4.2
11,GGAUCUUCUCGAUCUAACAAAAAAGACAAAUCUGCCACAAAGCUUGAGAGCAUCUUCGGAUGCAGAGGGGGCAGCCUUCGGUGGCGCGAUAGCGCCAACGUUCUCAACUAUGACACGCUAAACGCGUGCUCCGUUGAAUGGAGUUUAUCAUG [C69G A119U],-1.72
12,GGAUCUUCUCGAUCUAACAAAAAAGACAAAUCUGCCACAAAGCUUGAGAGCAUCUUCGGAUGCAGAGGGGGCAGCCUUCGGUGGCGCGAUAGCGCCAACGUUCUCAACUAUGACACGCAAUACGCGUGCUCCGUUGAAUGGAGUUUAUCAUG [C69G A121U],-2.04
13,GGAUCUUCUCGAUCUAACAAAAAAGACAAAUCUGCCACAAAGCUUGAGAGCAUCUUCGGAUGCAGAGGGGGCAGGCUUCGGUGGCGCGAUAGCGCCAACGUUCUCAACUAUGACACGCAAAACGCGUGCUCCGUUGAAUGGAGUUUAUCAUG [C69G C75G],-2.12
14,GGAUCUUCUCGAUCUAACAAAAAAGACAAAUCUGCCACAAAGCUUGAGAGCAUCUUCGGAUGCAGAGGGGGCAGGCUUCGGUGGCGAGAUAGUGCCAACGUUCUCAACUAUGACACGCAAAACGCGUGCUCCGUUGAAUGGAGUAUAUCAUG [C69G C75G C87A C93U U145A],≤ -4.2
15,GGAUCUUCUCGAUCUAACAAAAAAGACAAAUCUGCCACAAAGCUUGAGAGCAUCUUCGGAUGCAGAGGGGGCAGUCUUCGGUGGCGCUAUAGCGCCAACGUUCUCAACUAUGACACGCAAAACGCGUGCUCCGUUGAAUGGAGUUUAUCAUG [C69G C75U G88U],≤ -4.2
16,GGAUCUUCUCGAUCUAACAAAAAAGACAAAUCUGCCACAAAGCUUGAGAGCAUCUUCGGAUGCAGAGGGGGCAGCAUUCGGUGGCGCGAUAGCGCCAACGUUCUCAACUAUGACACGCAAAACGCGUGCUCCGUUGAAUGGAGUUUAUCAUU [C69G C76A G152U],-4.17
17,GGAUCUUCUCGAUCUAACAAAAAAGACAAAUCUGCCACAAAGCUUGAGAGCAUCUUCGGAUGCAGAGGGGGCAGCCUUGGGUGGCGCGAAAGCGCCAACGUGCUCAACUAUGACACGCAAAACGCGUGCUCCGUUGAAUGGAGUUUAUCAUG [C69G C79G U90A U102G],≤ -4.2
18,GGAUCUUCUCGAUCUAACAAAAAAGACAAAUCUGCCACAAAGCUUGAGAGCAUCUUCGGAUGCAGAGGGGGCAGCCUUCGGUGGUGCGAUAGCGCCAACGGUCUCAACUAUGACACGCAAAACGCGUGCUCCGUUGAAUGGAGUUUAUCAUG [C69G C85U U101G],-1.25
19,GGAUCUUCUCGAUCUAACAAAAAAGACAAAUCUGCCACAAAGCUUGAGAGCAUCUUCGGAUGCAGAGGGGGCAGCCUUCGGUGGCGCGAUAGUGCCAACGUUCUCAACUAUGACACGCAAAACGCGUGCUCCGUUGAAUGGAGUUUAUCAUG [C69G C93U],-3.1
